According to paper PMC9730857 (ACS chemical neuroscience, 2022):
Where two headings read alike, the source gives them in different places.

Legend:
[1] = Metabolic stability in human liver microsomes; assay type: in vitro ADME; settings: pooled human liver microsomes, pH 7.4
mTAAR1 [2] = biological target: T1, mTAAR1 (Mus musculus, UniProt Q923Y8); experiment: mTAAR1 LanceUltra cAMP IC50; settings: functional cAMP IC50 values
rTAAR1 [3] = biological target: T2, rTAAR1 (Rattus norvegicus, UniProt Q923Y9); experiment: rTAAR1 cAMP agonist assay
T2 sequence (Q923Y9 whole entry): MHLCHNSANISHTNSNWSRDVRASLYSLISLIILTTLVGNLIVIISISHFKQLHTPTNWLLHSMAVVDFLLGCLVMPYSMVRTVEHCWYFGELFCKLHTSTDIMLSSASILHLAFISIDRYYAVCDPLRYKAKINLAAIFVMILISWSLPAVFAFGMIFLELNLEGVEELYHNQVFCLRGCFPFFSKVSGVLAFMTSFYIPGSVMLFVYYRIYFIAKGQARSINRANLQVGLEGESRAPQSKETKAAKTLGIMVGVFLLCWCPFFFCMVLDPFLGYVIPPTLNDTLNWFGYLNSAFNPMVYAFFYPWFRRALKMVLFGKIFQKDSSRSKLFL

BZP rat brain site = experiment: NIMH PDSP radioligand binding, BZP rat brain site
human sigma 2 = human sigma 2 (Homo sapiens, UniProt Q5BJF2); experiment: NIMH PDSP radioligand binding, human sigma 2
Sequence of UniProt Q5BJF2 (Q5BJF2 whole entry): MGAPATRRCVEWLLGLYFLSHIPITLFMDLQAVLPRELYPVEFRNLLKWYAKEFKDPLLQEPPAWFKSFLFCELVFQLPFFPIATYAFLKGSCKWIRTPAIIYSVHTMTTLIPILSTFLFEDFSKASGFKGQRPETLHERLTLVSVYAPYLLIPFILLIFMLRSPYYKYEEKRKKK

rTAAR1 [4] = biological target: T2, rTAAR1; experiment: rTAAR1 LanceUltra cAMP IC50; settings: functional cAMP IC50 values
rTAAR1 [5] = biological target: T2, rTAAR1; experiment: rTAAR1 cAMP Schild analysis; settings: rTAAR1 cAMP assay
VTA dopamine neurons = experiment: Electrophysiology, spontaneous firing of VTA dopamine neurons in mouse slices; assay type: cell-based
panel of 42 targets = experiment: NIMH PDSP off-target radioligand binding panel; settings: 10 μM, except BZP rat brain site and human sigma 2
mTAAR1 [6] = biological target: T1, mTAAR1; experiment: mTAAR1 cAMP agonist assay
rTAAR1 [7] = biological target: T2, rTAAR1; settings: read-out: EC50 at rTAAR1; literature; cited from earlier work
mTAAR1 [8] = biological target: T1, mTAAR1; settings: read-out: EC50 at mTAAR1; literature; cited from earlier work

T1 sequence (Q923Y8 whole entry): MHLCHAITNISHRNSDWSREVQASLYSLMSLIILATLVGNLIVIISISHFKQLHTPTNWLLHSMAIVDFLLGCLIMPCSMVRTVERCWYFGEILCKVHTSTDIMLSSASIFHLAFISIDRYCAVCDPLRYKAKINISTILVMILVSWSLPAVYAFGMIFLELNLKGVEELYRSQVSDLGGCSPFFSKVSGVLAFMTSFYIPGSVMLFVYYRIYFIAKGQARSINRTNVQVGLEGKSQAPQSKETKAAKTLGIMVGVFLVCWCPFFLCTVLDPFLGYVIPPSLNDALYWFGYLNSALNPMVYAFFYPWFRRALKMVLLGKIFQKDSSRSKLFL

| SMILES | microsomal CLint at 10 μM [1] [µL/min/mg] | fold less potent at mTAAR1 than at hTAAR1 (mTAAR1 [2]) [fold] | Change of rTAAR1-mediated cAMP production (rTAAR1 [3]; 10 μM) [%] | Inhibition at BZP rat brain site (BZP rat brain site; 10 μM, radioligand binding) [%] | Ki (BZP rat brain site; read-out: Ki at BZP rat brain site, follow-up concentration response) [nM] | Ki (human sigma 2) [nM] | inhibition at 10 µM (human sigma 2; read-out: Inhibition at human sigma 2) [%] | fold less potent at rTAAR1 than at hTAAR1 (rTAAR1 [4]) [fold] | Schild plot slope (rTAAR1) (rTAAR1 [5]) | Change in firing from baseline (VTA dopamine neurons; 0.1 μM) [Hz] | Change in firing from baseline (VTA dopamine neurons; 10 μM) [Hz] | Firing rate of VTA dopamine neurons (VTA dopamine neurons; 40 μM, baseline 1.0 ± 0.2 Hz) [Hz] | Off-target activity in panel of 42 targets (panel of 42 targets) | Change of mTAAR1-mediated cAMP production (mTAAR1 [6]; 10 μM) [%] | EC50 (rTAAR1 [3]; read-out: EC50 at rTAAR1, control agonist, cAMP assay) [nM] | EC50 (rTAAR1 [7]) [nM] | EC50 (mTAAR1 [6]; read-out: EC50 at mTAAR1, control agonist, cAMP assay) [nM] | EC50 (mTAAR1 [8]) [nM] |
| --- | --- | --- | --- | --- | --- | --- | --- | --- | --- | --- | --- | --- | --- | --- | --- | --- | --- | --- |
| N#Cc1c(C(F)(F)F)cc(-c2ccc(Cl)cc2)nc1SCC(=O)Nc1ncccn1 [Compound 34, 2-[[6-(4-chlorophenyl)-3-cyano-4-(trifluoromethyl)-2-pyridinyl]thio]-N-2-pyrimidinylacetamide] | 14.9 | 142 | −15.4 | 75 | 1000 | 8400 | 90 | 89 | −0.3 | 0.19 ± 0.1 | 0.4 ± 0.1 | 2.3 ± 0.6 | little to no off-target activity | −12.0 |  |  |  |  |
| NCCc1ccccc1 [PEA, β-phenethylamine, reference compound] |  |  |  |  |  |  |  |  |  |  |  |  |  |  | 231 ± 15 | 110 | 150 ± 9 | 200 |
